Experimental data: the supplement of paper PMC4604168 (melanoma cell lines)
The other results are listed elsewhere or left out. Repeats are few or missing, and single values can be far off.
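Also: cell number obtained by counting DAPI-stained nuclei in high-throughput microscope images with image analysis software, screen run in 1,536-well plates.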

Each compound was assayed on UACC62 (assay: cell count relative to DMSO control; melanoma cells; higher = more viable cells). Details: library dose: low library concentration; 72 h.
In the case of O=C(CCCCCCC(=O)Nc1ccccc1)NO [vorinostat] + O=C(Nc1ccccc1)c1cc([N+](=O)[O-])ccc1Cl [GW9662] (first compound 0.08 µM, partner dose 2 µM), the cell count is reported as 79.2%. Nc1cccc2c1CN(C1CCC(=O)NC1=O)C2=O (centres undefined) [lenalidomide] + O=C(O)C(=O)Nc1sc2c(c1C(=O)O)CCNC2 [TCS401] (first compound 1 µM, partner dose 1.66667 µM) showed a cell count of 111%. For COCC[n+]1c2c(n(Cc3cnccn3)c1C)C(=O)c1ccccc1C2=O + O=c1cc(-c2cccc3c2Sc2ccccc2S3)oc(N2CCOCC2)c1 [KU55933] (first compound 0.0004 µM, partner dose 1 µM), the cell count was 94.1%. Nc1cccc2c1CN(C1CCC(=O)NC1=O)C2=O (centres undefined) [lenalidomide] + N#Cc1c(O)c2c(-c3ccc(-c4ccccc4O)cc3)csc2[nH]c1=O [A769662] (first compound 1 µM, partner dose 2 µM) was tested, and the cell count was 108%. COCC[n+]1c2c(n(Cc3cnccn3)c1C)C(=O)c1ccccc1C2=O + CCCCCCCCCCCC1=C(O)C(=O)C=C(O)C1=O [Embelin] (first compound 0.0004 µM, partner dose 1.2 µM) was tested, and the cell count was 93.8%. Cn1c(Nc2ccc(C(F)(F)F)cc2)nc2cc(Oc3ccnc(-c4ncc(C(F)(F)F)[nH]4)c3)ccc21 + Cc1cc([N+](=O)[O-])ccc1NS(=O)(=O)c1cc(Cl)ccc1Cl [FH535] (first compound 0.08 µM, partner dose 1 µM) showed a cell count of 45%. COCC[n+]1c2c(n(Cc3cnccn3)c1C)C(=O)c1ccccc1C2=O + COc1ccc2c(c1)CCC1C2CCC2(C)C(NCCCCCCN3C(=O)C=CC3=O)CCC12 [U73122] (first compound 0.0004 µM, partner dose 0.4 µM) showed a cell count of 108%. With Nc1cccc2c1CN(C1CCC(=O)NC1=O)C2=O (centres undefined) [lenalidomide] + CCCCCCCCCCCC1=C(O)C(=O)C=C(O)C1=O [Embelin] (first compound 1 µM, partner dose 1.2 µM) the cell count was 107%. In the case of O=C(CCCCCCC(=O)Nc1ccccc1)NO [vorinostat] + c1cc(-c2cnn3cc(-c4ccc(OCCN5CCCCC5)cc4)cnc23)ccn1 [Dorsomorphin] (first compound 0.08 µM, partner dose 0.4 µM), the cell count is reported as 90.1%.
